Results on 73 sequences are retold here after paper PMC10726135.

This is one part of the list. At the low end of the ranking, values are background and their order means little. Measured with an extract: partners may take part in the binding.

This experiment deals with T1, HNF4alpha2 (COS-7 nuclear extract) (UniProt P41235).
T1 sequence: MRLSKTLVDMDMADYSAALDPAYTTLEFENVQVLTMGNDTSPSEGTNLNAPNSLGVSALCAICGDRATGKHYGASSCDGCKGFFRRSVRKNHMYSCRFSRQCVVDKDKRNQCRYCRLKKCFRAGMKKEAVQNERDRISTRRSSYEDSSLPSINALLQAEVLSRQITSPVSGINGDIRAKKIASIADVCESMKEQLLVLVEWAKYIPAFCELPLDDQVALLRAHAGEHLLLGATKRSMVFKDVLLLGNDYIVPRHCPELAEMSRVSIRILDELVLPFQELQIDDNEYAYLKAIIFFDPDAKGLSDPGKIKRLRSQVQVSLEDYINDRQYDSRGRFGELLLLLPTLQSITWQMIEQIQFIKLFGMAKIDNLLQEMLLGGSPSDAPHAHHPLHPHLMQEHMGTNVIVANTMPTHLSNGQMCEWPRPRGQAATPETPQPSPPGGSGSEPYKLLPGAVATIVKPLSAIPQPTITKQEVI
Nature of the experiment: protein-binding microarray. The conditions noted are these: COS-7 nuclear extract on double-stranded Agilent 4x180k PBM; binding buffer, salt, pH and temperature not given; high values mean tight binding; double strand, one strand shown; sequences stand for … in …GCCTAGGGAGATTAGAGTATCGGTCGA
As to TCCAGAAAAGACCAAAAAGGCTAACTTACC, the binding signal (log2 normalized intensity) was -0.941.

Turning to GAGCAGCTCTGTATTGAGATAAGCAAGACT, the binding signal (log2 normalized intensity) was -1.13.

As to TGTTGCAAGCAATGGAGAGGATTTTGGAAT, the binding signal (log2 normalized intensity) worked out at 0.279. TAGCACCTTCCAGCAGCAGGCCTGGGGGCA: the binding signal (log2 normalized intensity) is -0.985.

On to GTCCTGCTGGTTTGCCATTTGGAGAGAGTT, for which the binding signal (log2 normalized intensity) was determined as 1.37. As for TTTGCCAAAGCATAGCAAGAGTGACCTTTG, the binding signal (log2 normalized intensity) turned out to be 6.6. Next, ATTCTCCAGTCCGAAGGTCCACCCGTCCGC: 2.2. Next, ATTCCCCGACTCCTGGGTGTGAGATAAGGC: 0.414; GCAGGAGGAGGAGCCAGTGAAGACTGAAAA: -1.2; TGCCTTTCCCTTATCAGGACTTTGTGATTA: 2.79. With GCCATTTCGGCACCTTCTACACAGCACCCC, the binding signal (log2 normalized intensity) was determined as 2.98. Next, CAGCACCACCTGCTGGTCAGGAGACTGCTC: -1.1. Next, ATTAGCTTCCCGGCTGTCACAGCCTGGTTC: -1.17; CCTGGGAGGCAGGACCTTGGGAAAGGAGAA: -1; GGAGATAGCCTCTGGGCTGGCTTTAGCTCA: -1.08. Next, AGTAAACAGGGCTGGGATAACCGAGGCTGA: -1.1; TGAACTGATTAGAACATTAAGTCCAAATGC: 1.04. Take CATGCTGATGGCAAACACCTGGCCAGCGAC: the binding signal (log2 normalized intensity) was -1.01. Next, GGGTAATAAATAAAGCCCTGGGGTAATAAA: -1.2.

CTGGTTGGAATTCCAGTGTTCACATCTGAT: the binding signal (log2 normalized intensity) amounted to 1.08. As to GGAGGAAGCAGCGATGGAAGGGATGGGGTG, the binding signal (log2 normalized intensity) is -1.21.

Turning to CTCTCTGGACTTCGGACATTCCAGGGAACA, the binding signal (log2 normalized intensity) amounted to 3.7. With GAACCAGAGAAGATTCCAGAGGGAGGGAGG, the binding signal (log2 normalized intensity) is -1.01. For GACTACCAGCCAGTAGGAGTTGGAACGGGG, the binding signal (log2 normalized intensity) was -1.14. Next, ACATTAAGACCACCTCTATGCACACGTTCA: -1.1; CCTGCTGCACAACGACCCTTGCTCTGTTTT: 2.86.

Regarding ACACAGACTCCAAAGAATGGAAGGCAGTGT, the binding signal (log2 normalized intensity) is -0.799. For CCCCATATCCAGTCAATCCCGTGGACTTTG the value was 5.35; for GGGTCAGTTTATCGAAAATCCCCCACCATT, 4.17. With ACCGTAAAGCCACCCCTTTCTCCTCTCTTT, the binding signal (log2 normalized intensity) amounted to 1.51. Next, TCATCTGGGCTTTAGGTTTGGTGTTTAATT: 1.72; TGCGTGTACTAAGGTCTTAAGTGTCATTAG: 1.58. Regarding TTTTTTTTTTTTTTTGAGATGGAATCTTGC, the binding signal (log2 normalized intensity) amounted to 0.979. Take AATCTTGATAGTAGAGCTTATCAAGGCAAC: the binding signal (log2 normalized intensity) was -0.748. Consider GGCGGACAGCGCCGCCACCCGGTTGGCGCC, for which the binding signal (log2 normalized intensity) is -0.85.

For CTTTTGGCTCCCTGGGGTTAAAATGTTTAC, the binding signal (log2 normalized intensity) turned out to be 1.77. Next, TTTCAAGAACAAACAAATTTAGCAAGACTG: -1.13; GACTTTTTGTAGTTTCAGCTTCTTCCTTGA: 1.22. Next, TCTGAATAGAACTCAGGAAAGATCAGCTGA: -1.21; AGAGTTCCTGACAATTGGCCAAAGTTCAGT: 4.04; CAGCAGATAAGGGCAGAGAGGCTGCCATCC: -1.12. Next, GCCTGTTCACATTCCAGTGTTTCAAAGGAG: -0.114.

With TCCAGTGGACATTGGCCCTTTGACCTTTAA, the binding signal (log2 normalized intensity) is 7.47. For the sequence TCTTATCAGCCATCTCCCCAGGGAGGCCTG, the binding signal (log2 normalized intensity) was -0.817. For GCCCCCAGAGGTTCTAGCCCTGGTGAGTCA the value was 1.24. For AAATTCCAACAGTTGAGAATTCCAGAGATG the value was -1.19; for CTTTAGGACTTTGAACCTTGGGTCTGTAAT, 6.04. With ACTTTGAGGTGTTCTCTGGGGTTAGCCAAA, the binding signal (log2 normalized intensity) worked out at 1.59. For CCTTGCATCAGAATCTGGACAGTGTAAGAT the value was 1.03; for TATAGTCACTATACAACTAGGCTACATGAT, -1.13.

In the case of CTGCAGGGTAGGCAGACAGGTTGGAGACGC, the binding signal (log2 normalized intensity) is -0.955.

In the case of AGGAGAAGAATGAAAGCCAAGGCAGATATG, the binding signal (log2 normalized intensity) was -1.11. In the case of GCTCTTTAGGAATGCAACTCTAACCTTTAC, the binding signal (log2 normalized intensity) stood at 2.93. As for GGAAATAATGCGACTTGCCTTGTGTACTCT, the binding signal (log2 normalized intensity) was 1.82. For CTCCCGGGGAGGTCAACCAGGGAAATTACC the value was -1.19; for CAGGTAGAGAGCAATCATGCACCTGCGGAT, -1.25; for CTGGGGAGACTCTCTCTCCTCTCCAGCCCA, 0.968. For GCAAAGGTGAGGGGAGCGTAAAACCACTGG the value was -1.12; for TTTTATGTGCTCCATCAGTGGTAAACAGAA, 0.695. For GTAGTTGCAAATATTGCAGTGTAGATTAAA the value was 0.397; for TAAAATGAGACTTCCCAGCTGCTGGTCAAA, -0.13; for TATGGCTTATACTTGAGGTATGATGCATCC, 1.53.

Consider CAATTGGGAATGTCACAGGGGCCATGCAGG, for which the binding signal (log2 normalized intensity) was -1.02. For TGCAAATATTGCAGTGTAGATTAAATCCTC, the binding signal (log2 normalized intensity) was -0.842. For ACACTTAGAAAATGCCCTCAATCAAAGTGA the value was -0.98; for GCTGACATGCTCTTGGAATGTTGAACCTTT, 4.24; for TGATCAGAAAAGAAAGTGAGGAATGCAACC, -1.05. Next, GGGTGGGCCTGGGGGGAGACAACTGCAACA: -1.23. For ACAGGGCTTGGGGTGGGGTTGGAGTCCAGA the value was 1.25; for CTGACACTGTCCCAGCTGAGATTCAGAATA, -1.23.

With TGTGTGCACAAGAGGGTGGGAGTTCAGGGG, the binding signal (log2 normalized intensity) is -1.22. For AGTTCCCAGCCCTTCACCAGAGCCGTCTGG the value was -0.946; for TTCATCCCCACCCCCACTGCCTGACCCCAA, 7.59.
